Laboratory results as given in article PMC10215934, “Daptomycin Pharmacokinetics in Blood and Wound Fluid in Critical Ill Patients with Left Ventricle Assist Devices” (Antibiotics, 2023).

Experiments:
Gram-positive pathogens = test: Infections after LVAD implantation under prophylactic daptomycin; format: in vivo, human
Description: All patients were, on the day of surgery, free from infection and, after LVAD implantation, received standard intensive care. Daptomycin was used prophylactically to prevent an early Gram-positive bacteria-related infection in patients after LVAD implantation. According to the internal standard operating procedure for LVAD recipients, therapy was discontinued after five to seven days if there was no evidence of infection. Blood and wound secretions were drained from the mediastinum and sometimes one or both pleural spaces in the first three postoperative days.
Samples were taken following the schedule below (Table 3).

[1] = extracted samples, autosampler at room temperature
Description: Optional: serum patient sample with daptomycin (grey curve 300 nm, black curve 370 nm).
Daptomycin concentration [mg/l] […]
validation, stability was tested in human serum and water for injection at different conditions, including room temperature, refrigeration at 4° C, and freezing at -20° C as well as -80° C. For stability testing, two samples were thawed out and subsequently analyzed. Stability was defined by the time at which the samples remained at a concentration of > 90% for their baseline concentrations.
(1 picture or pasted object on this page, not shown here)

[2] = Daptomycin concentration in wound (drainage) fluid, HPLC-UV; conditions: all three days
Description: This single-center prospective trial was carried out in the intensive care unit 39 of the department of anesthesia and intensive care medicine at the university hospital of Tübingen from April 2017 to March 2019. All patients scheduled for implantation of a left ventricular assist device were screened for inclusion and exclusion criteria. All patients received prophylactic antibiotic therapy, including daptomycin, during the first 5 or 7 postoperative days. Daptomycin (5 to 8 mg per kg of body weight) was infused over 30 min, once daily, at 7 a.m. Samples were taken following the schedule below (Table 3).
Blood samples were drawn from the arterial catheter already in place and considering hygiene requirements. The fluid samples from the drain systems were taken from the incorporated port under consideration of the standard hygienic procedures to avoid any contamination of the system. The samples were labeled with the number of the patient, the time of collection, and the date following the study protocol. All samples were centrifuged, and the supernatant was stored at −80 °C until dispatch to the laboratory in Heidenheim (Department of Pharmacy, General Hospital of Heidenheim). Measurements were performed using high-performance liquid chromatography with ultraviolet detection (HPLC-UV). […]

CCCCCCCCCC(=O)N[C@@H](Cc1c[nH]c2ccccc12)C(=O)N[C@H](CC(N)=O)C(=O)N[C@@H](CC(=O)O)C(=O)N[C@@H]1C(=O)NCC(=O)N[C@@H](CCCN)C(=O)N[C@@H](CC(=O)O)C(=O)N[C@H](C)C(=O)N[C@@H](CC(=O)O)C(=O)NCC(=O)N[C@H](CO)C(=O)N[C@@H]([C@H](C)CC(=O)O)C(=O)N[C@@H](CC(=O)c2ccccc2N)C(=O)O[C@@H]1C [Daptomycin]
infections (any pathogen) in the nine patients (Gram-positive pathogens; herpes simplex virus in tracheal secretion, sepsis with Klebsiella oxytoca): Two | infections with evidence of Gram-positive pathogens (Gram-positive pathogens; prophylactic daptomycin after LVAD implantation, nine patients): no infections with evidence of Gram-positive pathogens | time without variation in the peak area after extraction [1]: at least 24 hours | accumulation of daptomycin in the wound drains [2]: did not observe any accumulation
